Experimental data from PubChem BioAssay (NCI).
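Results reflect a 48-hour exposure of cells in 96-well plates to compound at five concentrations. GI50 = concentration required for 50% inhibition of growth. TGI: total growth inhibition.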

Test system: NCI-H322M lung
Test: inhibition of tumour cell growth, NCI panel, 48 h

| Structure (SMILES) | GI50 | TGI |
| --- | --- | --- |
| Cc1ccc(C(C)C)cc1Oc1cccc(-c2c(-c3ccc(C(F)(F)F)cc3)ncn2C2CCNCC2)n1 | 1.52 µM | 2.85 µM |
| COc1ccc(NC(=O)CSc2nnc(-c3ccc(-c4nc5ccc(Cl)cc5[nH]4)cc3)o2)cc1 | 3.67 µM | 20.6 µM |
